PubChem BioAssay AID1240 (Sanford-Burnham Center for Chemical Genomics, 2008)
The campaign covered roughly 50,000 compounds. About 800 (1.6%) showed an effect of 50% or more. The list shows a part of the results.

Target: Bcl-2-like protein 10 (Homo sapiens) (UniProt Q9HD36)
Assay: TR3 peptide-Bcl-B binding displacers, biochemical primary FP assay, phenotype converters (AID 1240);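 note: 0% = Bcl-B with tracer peptide and DMSO and 100% = tracer peptide lacking Bcl-B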
Conditions: GST-Bcl-B / FITC-TR3 peptide fluorescence polarization; stronger effect = higher value; compound at 3.75 mg/L

Sequence of UniProt Q9HD36 (Q9HD36 whole entry, looked up): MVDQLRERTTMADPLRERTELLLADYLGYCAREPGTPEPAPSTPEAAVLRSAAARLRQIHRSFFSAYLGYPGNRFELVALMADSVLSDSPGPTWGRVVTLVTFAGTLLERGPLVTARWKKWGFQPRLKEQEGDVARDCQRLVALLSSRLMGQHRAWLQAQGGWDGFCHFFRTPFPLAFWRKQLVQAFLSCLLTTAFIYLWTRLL

Q: With Oc1c(Cl)cc(Cl)cc1/C=N/Nc1nnc(-c2ccccc2)c(-c2ccccc2)n1 as the compound, how does the displacement read?
A: Its displacement is 0.5%.

Q: Cc1ccc(-n2nc3ccc(NC(=O)c4cccs4)cc3n2)cc1Cl was tested. Which displacement did it give?
A: Its displacement is 12.3%.

Q: Which displacement does the source give for COc1ccc(OC)c(S(=O)(=O)N2CCN(c3ccccc3)CC2)c1 here?
A: The displacement was -7.4%.

Q: For CCN(CC)Cc1c(O)ccc2c(=O)c(Oc3ccccc3Br)c(C(F)(F)F)oc12, which displacement is on record?
A: The displacement was 1.9%.

Q: Which displacement does the source give for Cc1cccc(NC(=O)C(=O)NCCCn2ccnc2)c1 here?
A: The displacement was 3.3%.

Q: Which displacement does the source give for Cc1ccc(COc2c(Br)cc(/C=C(\C#N)c3nn(-c4ccccc4)c(N)c3C#N)cc2Br)cc1 here?
A: Its displacement is 11.2%.

Q: How did the displacement turn out when O=C(N/C(=C/c1cccs1)C(=O)N1CCCCCC1)c1ccccc1 was run?
A: The displacement was 16.2%.

Q: How did the displacement turn out when O=C(Nc1ccc(-c2nc3ccccc3s2)cc1)c1ccc(Cl)c([N+](=O)[O-])c1 was run?
A: The displacement was 14.9%.

Q: Which displacement does the source give for CC1(C)CCCC2=C1CC(C(=O)O)C(C(=O)O)C2 (stereo unspecified) here?
A: The displacement was 12.2%.

Q: CCN(CC)c1ccc(NC(=O)C(c2ccccc2)c2ccccc2)cc1 was tested. Which displacement did it give?
A: The displacement was 8.2%.

Q: How did the displacement turn out when CCC(C(=O)Nc1cc(OC)c(Cl)cc1OC)c1ccccc1 (stereo unspecified) was run?
A: Its displacement is 2.4%.

Q: CCN(CC)c1ccc(C2NC(=O)NC(C)=C2C(=O)OCCOc2ccccc2)cc1 (stereo unspecified) was tested. Which displacement did it give?
A: The displacement was -0.8%.

Q: How did the displacement turn out when Cc1n(N)c2ccccc2[n+]1C was run?
A: Its displacement is -1.6%.

Q: How did the displacement turn out when O=S(=O)(c1ccccc1)N1CCN(Cc2ccc3c(c2)OCO3)CC1 was run?
A: The displacement was -8.5%.

Q: For COc1ccccc1NC(=O)N1CCCc2ccccc21, which displacement is on record?
A: Its displacement is 4.5%.

Q: CCCOc1ccc(C(=O)Nc2c(C)cc(Br)cc2C)cc1 was tested. Which displacement did it give?
A: The displacement was 12.4%.

Q: For COc1ccc(C(CC(=O)c2ccccc2)S(=O)(=O)c2ccc(C)cc2)cc1 (stereo unspecified), which displacement is on record?
A: The displacement was 13.7%.

Q: With CCOc1cc2oc(=O)cc(C)c2cc1CC as the compound, how does the displacement read?
A: Its displacement is 5.9%.

Q: For CCOC(=O)NCc1ccc(Cl)cc1, which displacement is on record?
A: The displacement was 1.2%.

Q: With CCc1ccc(OCC(=O)Nc2cccc(S(N)(=O)=O)c2)cc1 as the compound, how does the displacement read?
A: Its displacement is -2.2%.

Q: O=C1CCCC(O)=C1C(C1=C(O)CCCC1=O)c1ccc(Cl)cc1 was tested. Which displacement did it give?
A: Its displacement is -12%.

Q: COc1cccc(C(=O)Nc2ccc3oc(-c4cccc(OC)c4)nc3c2)c1 was tested. Which displacement did it give?
A: Its displacement is -9.2%.

Q: How did the displacement turn out when O=C(/C=C/c1ccco1)Nc1ccc(S(=O)(=O)Nc2nccs2)cc1 was run?
A: Its displacement is 0.3%.

Q: Which displacement does the source give for O=c1cc(N2CCOCC2)c2ccccc2o1 here?
A: Its displacement is 4.8%.

Q: With Cc1c(C=C(C#N)C#N)c(C)c([N+](=O)[O-])c(C)c1[N+](=O)[O-] as the compound, how does the displacement read?
A: Its displacement is 10.5%.

Q: Cc1c(-n2c(O)c(C3=c4cc([N+](=O)[O-])ccc4=NC3=O)sc2=S)c(=O)n(-c2ccccc2)n1C was tested. Which displacement did it give?
A: Its displacement is -4%.

Q: Which displacement does the source give for Cc1ccc(OCC(=O)NC2C3CC4CC(C3)CC2C4)c(Br)c1 (stereo unspecified) here?
A: The displacement was 3.7%.

Q: With N#Cc1ccc2c(c1)nc1c3cccc4cccc(c(=O)n21)c43 as the compound, how does the displacement read?
A: The displacement was 22.2%.

Q: O=C(CC1Nc2ccccc2NC1=O)Nc1ccc(Br)cc1 (stereo unspecified) was tested. Which displacement did it give?
A: The displacement was -5.1%.

Q: Which displacement does the source give for NNc1cc(-c2ccccc2O)nc(-c2ccccc2)n1 here?
A: Its displacement is -14.9%.

Q: How did the displacement turn out when O=C(Nc1cccc(-c2nc3ccccc3[nH]2)c1)c1cccs1 was run?
A: The displacement was -5.1%.
